Assay results reported in PubChem BioAssay AID686979 (National Center for Advancing Translational Sciences (NCATS), 2013).
Out of some 420,000 compounds screened, about 50,000 (12%) were called active. Inconclusive means that the source gave no clear call. Such entries were picked first, then a sample of the others. Calls follow the shape of the dose curve; as a rule, active = well fitted inhibition curve with a large enough effect; inconclusive = small, poorly fitted or top-dose-only effect; inactive = flat fitted curve, though single readings scatter. No potency is given beside an inconclusive call; the fits are too rough.
% is scaled to controls: 0 for no effect and ±100 for the full control effect; potency is read from the fitted curve at half-maximal effect; tags tell the direction and shape of the fitted curve.

Assay: qHTS for Inhibitors of human tyrosyl-DNA phosphodiesterase 1 (TDP1): qHTS in cells in presence of CPT; also: nearly all actives have a fitted effect of over 55% in size
Conditions: chicken DT40 Tdp1-/-;hTDP1 cells + 20 nM CPT, ATP luminescence, 48 h; activity change, negative = growth inhibition: at 46.2 µM (top of the series) unless noted
Method in brief: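 Cell growth measured by CellTiter-Glo luminescence after a minimum 48 h, 37 C compound exposure with 20 nM CPT in Tdp1-knockout DT40 cells stably expressing hTDP1, seeded 400/well; qHTS titration format.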
In the case of `C[C@@H]1CCCCO[C@@H](CN(C)S(=O)(=O)c2ccccc2)[C@@H](C)CN([C@H](C)CO)C(=O)c2cc(N(C)C)ccc2O1`, the “activity change, negative = growth inhibition” value is reported as inactive: -17.9%. In the case of `O=C(c1cccs1)N1CCN=C1SCc1cccc(F)c1`, the “activity change, negative = growth inhibition” value is reported as inactive: -20.4%. For `CCc1ccc(-c2cc(C)no2)cc1S(=O)(=O)NCc1ccc(OC)cc1`, the Potency was active: 0.92 µM. For `COc1ccc(/C=N/Nc2ccccn2)cc1OC`, the Potency was inconclusive [inhibitor, single point]. For `Cc1sc2ncn(CC(=O)N3CCN(c4cccc(Cl)c4)CC3)c(=O)c2c1S(=O)(=O)N1CCC(C)CC1`, the Potency was inconclusive [inhibitor, single point]. For `COc1ccc(-c2ccc(/C=N/NC(=O)c3cccnc3)o2)c([N+](=O)[O-])c1`, the Potency was inconclusive [inhibitor, single point]. In the case of `OC(C#CCCN1CCCCC1)(c1ccccc1)C1CCCCC1` (configuration not stated), the Potency is reported as inconclusive [inhibitor, single point]. In the case of `CC(O)CNc1nc2ccccc2n1CC(=O)NCCc1ccc(Cl)cc1` (configuration not stated), the Potency is reported as inconclusive [inhibitor, single point]. For `Cc1cccc2cc(-c3nc(-c4cccs4)no3)c(=O)oc12`, the “activity change, negative = growth inhibition” value was inactive: -14%. With `Cc1cc(C)c(C(=O)N2CCCC(N3CCN(c4ccc(F)cc4)CC3)C2)o1` (configuration not stated) the Potency was inconclusive [inhibitor, single point]. For `CCOc1ccc(C(c2c(O)cc(C)n(CCOC)c2=O)N2CCN(c3ccc(F)cc3)CC2)cc1` (configuration not stated), the “activity change, negative = growth inhibition” value was inactive: -21.4%. For `CC(=O)OCC1(C)CN(c2ccccc2)N(C(=O)c2ccc(C(C)(C)C)cc2)C1=O` (configuration not stated), the Potency was inconclusive [inhibitor, single point]. For `O=S(=O)(c1cccc(NC(=S)Nc2ccc(Br)cc2Cl)c1)N1CCOCC1`, the Potency was active: 16.4 µM. With `Cc1ccc(C(=O)OCC(=O)Nc2cccc(S(=O)(=O)NC3=NCCCCC3)c2)c(C)c1` the Potency was inconclusive [inhibitor, single point]. For `CCOc1cc(N2CCOCC2)c(OCC)cc1NC(=O)C1CCCC1`, the Potency was inconclusive [inhibitor, single point]. With `O=C(COC(=O)C1CC2C=CC1C2)Nc1ccccc1[N+](=O)[O-]` (configuration not stated) the Potency was inconclusive [inhibitor, single point]. With `O=C(CCC1CCCN(C(=O)C2(c3ccccc3)CC2)C1)N1CCN(c2ccccn2)CC1` (configuration not stated) the Potency was inconclusive [inhibitor, single point]. In the case of `O=C(C1=C[C@H](C2CCCCC2)C[C@H](OCc2ccc(CO)cc2)O1)N1CCN(Cc2ccc3c(c2)OCO3)CC1`, the Potency is reported as inconclusive [inhibitor, single point]. In the case of `CCOc1ccc2nc(NC(=O)CN3CCC(n4nnc5cc(C(F)(F)F)ccc54)CC3)sc2c1`, the Potency is reported as active: 14.6 µM. In the case of `O=C(NC(=S)N1CCc2ccccc21)c1ccccc1`, the Potency is reported as active: 20.6 µM. For `NNC(=O)/C(=N/Nc1ccccc1)S(=O)(=O)c1ccc(Cl)cc1`, the Potency was inconclusive [inhibitor, single point]. For `O=C(CN1C(=O)NC2(CCc3ccccc32)C1=O)c1ccc2c(c1)OCCO2` (configuration not stated), the Potency was inconclusive [inhibitor, single point]. For `Cc1cccc(NC(=O)CSc2nc3ccccc3c(=O)n2C)c1`, the Potency was inconclusive [inhibitor, single point]. In the case of `O=c1[nH]c([N+](=O)[O-])nn1C(c1ccccc1)c1ccccc1`, the “activity change, negative = growth inhibition” value is reported as inactive: -16.2%. For `C=CCc1c(C)nc(-c2ccccc2)nc1N/N=C(\C)c1ccccc1`, the Potency was inconclusive [inhibitor, single point]. In the case of `Cc1ccc(NC(=O)c2cccc(-n3cnnn3)c2)cc1Cl`, the “activity change, negative = growth inhibition” value is reported as inactive: -17.8%. For `CCN(CC)C(=O)Cn1c(=O)n(CCCCCC(=O)NCc2ccc(C)cc2)c(=O)c2sccc21`, the “activity change, negative = growth inhibition” value was inactive: 2.24%. For `Cc1ccccc1C1C(C#N)=C2N=C(N)c3c(sc4c3CCCCC4)N2C2=C1C(=O)CCC2` (configuration not stated), the Potency was inconclusive [inhibitor, single point]. For `CCCCn1c(C)cc(C)c(S(=O)(=O)c2ccccc2C)c1=O`, the Potency was inconclusive [inhibitor, single point]. For `Cc1ccc(S(=O)(=O)n2nccc2-c2c(-c3ccccc3)noc2C)cc1`, the Potency was inconclusive [inhibitor, single point]. In the case of `CCN(CC)S(=O)(=O)c1ccc2oc(C(=O)N3CCc4ccccc4C3)c(C)c2c1`, the Potency is reported as inconclusive [inhibitor, single point]. For `COc1ccc(NCc2nnc(SCc3ccc(Cl)cc3)n2-c2ccccc2)cc1`, the Potency was inconclusive [inhibitor, single point]. With `COc1ccc(-c2c(C#Cc3ccsc3)c3cc(-c4cccc5[nH]ccc45)ccc3n2C)cc1` the Potency was inconclusive [inhibitor, single point]. For `CCCCNC(=O)Cn1nc(N2CCN(c3ccccc3OC)CC2)ccc1=O`, the Potency was inconclusive [inhibitor, single point]. For `O=C(Nc1ccc(F)cc1)c1cccnn1`, the “activity change, negative = growth inhibition” value was inactive: 1.64%. With `C[C@H](CO)N1C[C@H](C)[C@@H](CN(C)Cc2ccc3c(c2)OCO3)Oc2c(NC(=O)Cc3ccccc3)cccc2C1=O` the Potency was active: 23.1 µM. With `Cc1ccc(NC(=S)c2nc3ccccc3s2)cc1` the Potency was inconclusive [inhibitor, single point]. With `COc1ncc(-c2ccc(N3C(c4ccsc4)=Cc4ccc(F)cc4C3CC(=O)c3ccco3)cc2)cn1` (configuration not stated) the Potency was inconclusive [inhibitor, single point]. In the case of `CCCCCN=C(N)N/N=C/c1c[nH]c2ccc(OC)cc12`, the Potency is reported as active: 2.91 µM. In the case of `COc1cccc(C(=O)N2CCc3cc(OC)c(OC)cc3C2COc2ccc3c(C)cc(=O)oc3c2)c1` (configuration not stated), the Potency is reported as inconclusive [inhibitor, single point]. In the case of `O=[N+]([O-])c1ccc(N2CCN(c3ccccc3O)CC2)c(Cl)c1`, the Potency is reported as active: 20.6 µM. With `COc1ccc(C(=O)NC(=S)N2CCC(C)CC2)cc1` the Potency was inconclusive [inhibitor, single point].
